# Source: PubChem BioAssay AID686978 (National Center for Advancing Translational Sciences (NCATS), 2013)
# About 64,000 (15%) of roughly 420,000 compounds were called active. Inconclusive means that the source gave no clear call. Such entries were picked first, then a sample of the others. The call rests on the fitted dose curve; in most records, active means well fitted inhibition curve with a large enough effect; inconclusive means small, poorly fitted or top-dose-only effect; inactive means flat fitted curve, though single readings scatter. Potencies of inconclusive entries are left out as doubtful fits.
# Assay: qHTS for Inhibitors of human tyrosyl-DNA phosphodiesterase 1 (TDP1): qHTS in cells in absence of CPT; further: nearly all actives have a fitted effect of over 55% in size
# Conditions: DT40 Tdp1-/- hTDP1 cells, no CPT, ATP luminescence, 48 h; activity change, negative = growth inhibition: at 46.2 µM (top of the series) unless noted
# In short: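 Luminescent ATP content (CellTiter-Glo) served as the growth readout. Knockout chicken DT40 cells expressing human TDP1 were exposed to compounds without camptothecin for a minimum 48 hr at 37 °C.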
# On the % scale 0 is the no-effect control and ±100 the full control effect; potency means the concentration at half of the fitted maximal effect; tags describe the fitted curve by direction and shape.
SMILES,Potency,"activity change, negative = growth inhibition"
Cn1c(SCC(=O)c2ccc(-c3ccccc3)cc2)nnc1-c1ccco1,active: 25.9 µM,
Cc1ccc(C(=O)NC(NC(=O)c2ccc(C)cc2)c2cccc([N+](=O)[O-])c2)cc1,"inconclusive [inhibitor, partial curve]",
CN(CCc1ccccc1)C(=O)c1ccc(NC(=O)Cc2ccc(NC(=O)C3CCN(C(=O)C4CCCC4)CC3)cc2)cc1,active: 23.1 µM,
COc1ccc(NC(=O)CSc2nc3[nH]ncc3c(=O)[nH]2)c(OC)c1,inactive,
Cc1ccc(CSCC(=O)N2CCN(Cc3ccc4c(c3)OCO4)CC2)cc1,"inconclusive [inhibitor, single point]",
Cc1c(C(=O)Nc2ccccc2Br)oc2ccc(S(=O)(=O)N3CCCCC3)cc12,"inconclusive [inhibitor, partial curve]",
CCN(c1cccc(C)c1)S(=O)(=O)c1nnc(NC(=O)c2cccs2)s1,"inconclusive [inhibitor, single point]",
COc1ccc(C(=O)n2cc(C(=O)c3cc(C)ccc3O)cn2)cc1OC,"inconclusive [inhibitor, partial curve, poor fit]",
N/C(=N\NS(=O)(=O)c1ccccc1)c1ccccn1,,inconclusive: -31.4% [inhibitor]
CCCc1c(C(=O)N/N=C/c2cccnc2)nnn1-c1nonc1N,inactive,
CCN(CC)CCC(c1ccc2c(c1)OCO2)c1c(OC)cc(OC)c2ccc(=O)oc12 (stereo not given),active: 18.4 µM,
CCN(CC(=O)NCc1cccs1)C(=O)c1cccc(S(=O)(=O)Nc2ccc(OC)cc2)c1,inactive,
O=C(/C=C/c1ccc2c(c1)OCO2)Nc1nc2ccccc2s1,"inconclusive [inhibitor, single point]",
CCOc1cc(N2CCOCC2)c(OCC)cc1NCC(=O)N1CCN(Cc2ccccc2)CC1,"inconclusive [inhibitor, single point]",
COCCNC(=O)/C(C#N)=C/c1cc(C(C)C)c(OC)cc1C,"inconclusive [inhibitor, single point]",
Cc1cccc(Cn2c(CN3CCC(C(=O)NCCc4ccccc4)CC3)cc3ccccc32)c1,active: 18.4 µM,
COc1cc(Cn2c(-c3ccc(O)c(OC)c3)nc3ccccc32)ccc1O,"inconclusive [inhibitor, single point]",
CC1(C(=O)NCc2cccnc2)CCN1C(=O)Cc1cccs1 (stereo not given),inactive,
CCOC(=O)CN[C@H]1CCC2C3CC=C4C[C@@H](O)CC[C@]4(C)C3CC[C@@]21C (stereo not given in full),"inconclusive [inhibitor, partial curve, poor fit]",
O=C(NC1CCCC1)C1C(c2ccc(C(F)(F)F)cc2)=Nc2ccccc2N1C(=O)c1ccco1 (stereo not given),"inconclusive [inhibitor, single point]",
Cc1ccc(CNC(=O)CCSCc2cccc(F)c2)cc1,inactive,
CC(NC(=O)COc1ccc(/C=N/NC(=O)C(=O)Nc2ccccc2Br)cc1)c1ccccc1 (stereo not given),"inconclusive [inhibitor, partial curve]",
Cc1ccc(NS(=O)(=O)c2cccc(C(=O)Nc3cc(C)on3)c2)cc1,"inconclusive [inhibitor, partial curve, poor fit]",
O=C1CCCC(O)=C1N=Nc1ccc2c(c1)OCO2,inactive,

SMILES,Potency,"activity change, negative = growth inhibition"
CC(Sc1nnc(-c2ccncc2)n1C)C(=O)Nc1ccc(N2CCOCC2)cc1 (stereo not given),inactive,
Cc1ccc2cc3cc(C(=O)N4CCN(C(=O)c5ccco5)CC4)sc3nc2c1,"inconclusive [inhibitor, single point]",
O=C(NCCc1c[nH]c2ccccc12)C1Cc2ccccc2CN1C(=O)c1ccco1 (stereo not given),"inconclusive [inhibitor, partial curve]",
Cc1cc(NCCCN(C)C)n2c(nc3ccccc32)c1C#N,"inconclusive [inhibitor, single point]",
COc1ccc(N(CC(=O)NCc2ccc(C)cc2)S(=O)(=O)c2c(C)noc2C)cc1,inactive,
COC(=O)c1ccc(C(=O)OC)c(NC(=S)N2CCN(c3cc(Cl)ccc3C)CC2)c1,"inconclusive [inhibitor, single point]",
Cc1ccc(CN2C[C@@H](Sc3nc(C)cc(C)n3)C[C@H]2C(=O)N2CCN(c3ccccc3F)CC2)cc1,"inconclusive [inhibitor, partial curve]",
CCCS(=O)(=O)NC(=O)C1(C)CCCN(C(=O)c2ccc3ccccc3c2)C1 (stereo not given),inactive,
CCOc1ccccc1NC(=O)c1cccc2c1C(=O)N(C1CCCCC1)C2,active: 13 µM,
O=C(NCCCc1ccccc1)C(=O)NCC1OCCN1S(=O)(=O)c1ccc(F)cc1 (stereo not given),"inconclusive [inhibitor, single point]",
O=C(NCc1ccccc1)C(c1cc2ccccc2o1)n1c(=O)c(-c2ccccc2)nc2ccccc21 (stereo not given),active: 13 µM,
COc1ccc(CN2[C@@H](CC(=O)O)c3cc(C(F)(F)F)ccc3S2(=O)=O)cc1,"inconclusive [inhibitor, single point]",
COc1cccc(NC(=O)Cn2c(=O)n(-c3ccc(CC(=O)NCC4CCCO4)cc3)c(=O)c3ccccc32)c1 (stereo not given),"inconclusive [inhibitor, single point]",
O=C(/C=C\Nc1ccc(S(=O)(=O)Nc2ncccn2)cc1)c1ccccc1,inactive,
Cc1c(NC(=O)c2ccc(CN3CCc4ccccc4C3)cc2)c(=O)n(-c2ccccc2)n1C,inactive,
CCCOC(=O)CC1C(=O)NCCN1C(=O)OC(C)(C)C (stereo not given),inactive,
Nc1nc(N)nc(-c2cc(C(F)(F)F)ccc2Cl)n1,inactive,
O=C(COC(=O)c1cc(Br)ccc1O)Nc1ccc2c(c1)OCCO2,"inconclusive [inhibitor, single point]",
Cc1ccc(NC(=O)CSCc2cc(=O)n3nc(C4CC4)sc3n2)cc1,"inconclusive [inhibitor, single point]",
CCC1CN(CCNC(=O)c2ccccc2-n2cccn2)Cc2cc(OC)ccc2O1 (stereo not given),inactive,
O=C(N/N=C/c1cccnc1)c1ccc2c(c1)OCO2,inactive,
CN(C(=O)COC(=O)/C=C/c1cccs1)C1CCCCC1,inactive,
NS(=O)(=O)c1ccc(NC(=S)Nc2cc(Cl)c(Cl)cc2Cl)cc1,"inconclusive [inhibitor, partial curve, poor fit]",
CCCc1nc2ccc(Cl)cn2c1Cc1ccsc1,active: 13 µM,

SMILES,Potency,"activity change, negative = growth inhibition"
O=C1/C(=C/c2ccccc2)CCc2ccc(Cl)nc21,active: 4.61 µM,
COc1ccc(-c2cc(C(F)(F)F)n3nc(C(=O)Nc4c(C)n(C)n(-c5ccccc5)c4=O)c(Cl)c3n2)cc1,"inconclusive [inhibitor, single point]",
COCCN(C(=S)Nc1cccc(OC)c1)C(C)c1cccs1 (stereo not given),"inconclusive [inhibitor, single point]",
CSc1nc(C(=O)N2CCCC(C(=O)c3ccc(Cl)cc3)C2)cs1 (stereo not given),"inconclusive [inhibitor, single point]",
CCCn1c(C(C)Nc2nc(-c3cc(Cl)c(N)c(Cl)c3)cs2)nc2cc(Cl)c(N3CCCCC3)cc21 (stereo not given),"inconclusive [inhibitor, single point]",
CCC[C@H]1CN(c2ccc(Br)cc2)C(=O)[C@@H]1CC(=O)Nc1ccccc1,"inconclusive [inhibitor, single point]",
Cn1ccnc1-c1nnn(-c2ccc(F)cc2)n1,inactive,
COCCn1c(=N)c(S(=O)(=O)c2ccc(Br)cc2)cc2c(=O)n3ccccc3nc21,active: 20.6 µM,
CCOc1ccc(C(=O)OCc2cc(=O)n3nc(C4CCCCC4)sc3n2)cc1,active: 16.4 µM,
O=C(Nc1ccc(F)c(F)c1)C1CCN(S(=O)(=O)c2cccs2)CC1,"inconclusive [inhibitor, single point]",
COCCn1nnnc1C(CC(C)C)N1CCN(c2cccc(OC)c2)CC1 (stereo not given),inactive,
O=S1(=O)CC(N2CCN(c3ccccn3)CC2)CN1Cc1ccc(F)cc1 (stereo not given),"inconclusive [inhibitor, single point]",
CN(C)C(CNC(=O)c1ccc(NS(=O)(=O)c2ccc(F)c(F)c2)cc1)c1ccccc1 (stereo not given),inactive,
O=C(COC(=O)/C=C/c1ccc([N+](=O)[O-])cc1)NCc1ccccc1,"inconclusive [inhibitor, full curve, poor fit]",
COc1ccc(OC)c(NC(=O)C(=O)NCCC2=CCCCC2)c1,"inconclusive [inhibitor, single point]",
CCOC(=O)N1CCN(C(=O)c2ccc(N3CC4CC(C3)c3cccc(=O)n3C4)c(NC(=O)c3ccc(F)cc3)c2)CC1 (stereo not given),inactive,
CCCN1C(=O)C(NC(=O)c2ccccc2OC)(C(F)(F)F)C(C(=O)OC)=C1C (stereo not given),"inconclusive [inhibitor, partial curve]",
Cc1ccc(C)c(NC(=O)CSc2cn(CC(=O)N3CCCC3)c3ccccc23)c1,,inconclusive: -33.7% [inhibitor]
O=C(Nc1ccc(F)cc1)N1CCCN(c2ccc(C(F)(F)F)cn2)CC1,"inconclusive [inhibitor, single point]",
Cc1ccccc1C(=O)Nc1ccc(Br)cn1,active: 20.6 µM,
COc1ccc(-c2cc(C(F)(F)F)n3nc(C(=O)NCc4ccco4)cc3n2)cc1OC,"inconclusive [inhibitor, partial curve]",
CCCc1c(O)nc(SCC(=O)O)[nH]c1=O,"inconclusive [inhibitor, single point]",
